Test results from PubChem BioAssay AID493208 (National Center for Advancing Translational Sciences (NCATS), 2011).
Hit rate of the full screen: of about 44,000 compounds, about 340 (0.77%) were called active. Roughly 5% stayed inconclusive and do not appear here. Calls come from the whole dose curve; as a rule, active = well fitted inhibition curve with a large enough effect; inconclusive = small, poorly fitted or top-dose-only effect; inactive = flat fitted curve, though single readings scatter. Some of the results follow.

Test: Acumen qHTS Assay for Inhibitors of the mTORC1 Signaling Pathway in MEF (Tsc2-/-, p53-/-) Cells: Sytravon; note: nearly all actives have a fitted effect of over 50% in size;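 for activity change, negative = inhibition: plate controls were DMSO for no effect and rapamycin for full effect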
Settings: phospho-rpS6 immunofluorescence/PI, 24 h; series mostly up to 38.3 µM; activity change, negative = inhibition: at the top concentration
In short: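 Compounds act on Tsc2-/-, p53-/- fibroblasts carrying an empty vector for 24 h before fixation and dual staining for phospho-S6 and DNA (propidium iodide). Values are percentages of cells above a rapamycin-defined pS6/PI threshold.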
Potency is the fitted concentration of half-maximal effect.

| SMILES | activity change, negative = inhibition | Potency |
| --- | --- | --- |
| COc1cccc(N2CCN(C(=O)c3cc4c(=O)n(Cc5cccs5)ccc4nc3C)CC2)c1 | inactive: -8.21% | – |
| Cc1ccc(CNC(=O)Cn2ncc3c([nH]c4ccc(C)cc43)c2=O)cc1 | inactive: 4.98% | – |
| COc1ccccc1NC(=O)CN1C(=O)CC(c2ccc(C)c(C)c2)=Nc2ccccc21 | inactive: 0% | – |
| COc1ccc(CCNC(=O)c2ccc(-n3c(C)cc4c3CCCC4)cc2)cc1OC | inactive: -6.63% | – |
| CCCc1cc(=O)[nH]c(SCc2nc(-c3ccc(C)cc3)no2)n1 | inactive: 2.34% | – |
| COc1ccccc1CCNC(=O)Cc1c(C)c2cc3c(C(C)(C)C)coc3c(C)c2oc1=O | inactive: 2.98% | – |
| Cc1cccc(NC(=O)Cn2cnc(S(=O)(=O)N3CCCC3)c2)c1C | inactive: -11.6% | – |
| CC(C)Oc1ccc(CNC(=O)Nc2ccc3c(c2)N(C)C(=O)c2ccccc2S3)cc1 | inactive: -5.89% | – |
| COc1ccc(N2CCN(S(=O)(=O)CCNC(=O)COc3cccc(OC)c3)CC2)cc1 | inactive: -17.9% | – |
| CCCSc1ncc(Cl)c(C(=O)Nc2c(C(=O)Nc3ccccc3)oc3ccccc23)n1 | inactive: 2.19% | – |
| Cc1cccc(Cn2c(SCc3ccc(C(=O)N4CCC(C)CC4)cc3)nc3ccncc32)c1 | inactive: -0.301% | – |
| O=C(OCC1CCCO1)c1ccc2c(c1)N(Cc1cccc(Cl)c1)C(=O)c1ccccc1S2(=O)=O (centres undefined) | inactive: 0.981% | – |
| Cc1ccc(NC(=O)NCCOCCn2c(=O)oc3ccccc32)cc1F | inactive: 3.27% | – |
| Cc1cccc(NC(=O)c2c(NC(=O)c3ccccc3)sc3c2CCCC3)c1 | inactive: 8.56% | – |
| Cc1cc(C)c2c(n1)nn1c(C)c(CCC(=O)NCc3ccccc3Cl)c(C)nc21 | inactive: -5.99% | – |
| CCOc1ccc(-c2cc3nc(C4CCN(C(=O)OC(C)(C)C)CC4)c(C(=O)Nc4ccc(C)cc4Cl)cn3n2)cc1 | inactive: -18.6% | – |
| COC(=O)c1c(C)sc(-c2c(-c3ccc4c(c3)OCCO4)[nH]c3[nH]c(=O)[nH]c(=O)c23)c1O | inactive: 0.0443% | – |
| CN1CCSc2ccc(C(=O)NCc3ccccc3F)cc21 | inactive: -5.33% | – |
| CCC(Sc1nc2ccccc2c2nc(CCc3c(C)n[nH]c3C)nn12)C(=O)Nc1ccc(OC)cc1 (centres undefined) | inactive: 2.03% | – |
| O=C(Nc1nnc(N2CCCCCC2)s1)Nc1ccccc1C(F)(F)F | inactive: 0% | – |
| COc1cc(C(=O)Nc2nc3c(s2)Cc2c(Br)ccc(OC)c2-3)cc(OC)c1OC | inactive: 0.278% | – |
| COc1ccc(Cl)cc1NC(=O)CSc1c2c(nc3ccccc13)CCC2 | inactive: -10.5% | – |
| CCN(c1ccccc1)S(=O)(=O)c1ccc(NC(=O)c2cc(=O)c3cc(C)ccc3o2)cc1 | inactive: 0% | – |
| O=C(c1ccc2c(c1)N(Cc1ccc(F)cc1)C(=O)c1ccccc1S2=O)N1CCOCC1 (centres undefined) | inactive: -3% | – |

| SMILES | activity change, negative = inhibition | Potency |
| --- | --- | --- |
| CCc1cccc(CC)c1NS(=O)(=O)c1ccc2c(c1)CCN2C(=O)C1CC1 | inactive: -11.8% | – |
| COc1ccccc1-c1nnc(SCCOc2ccccc2C)o1 | inactive: -1.48% | – |
| CCOC(=O)c1cc(-c2ccc(OC)c(S(=O)(=O)Nc3ccc(OC)cc3OC)c2)on1 | inactive: -5.4% | – |
| Cc1ccc(CNC(=O)c2nnc(Cc3cccc(F)c3)o2)cc1 | inactive: 3.12% | – |
| COC(=O)c1sccc1S(=O)(=O)N1CCN(c2ccccc2OC)CC1 | inactive: 0% | – |
| O=C(Nc1ccc2nc(SCCOc3ccccc3Cl)sc2c1)c1cccs1 | inactive: -13.9% | – |
| COc1ccc(N2CC(C(=O)Nc3ccc(NC(C)=O)cc3)CC2=O)cc1 (centres undefined) | inactive: -0.0828% | – |
| COCCCNC(=O)C(=O)NCC(c1ccc2c(c1)OCO2)N1CCOCC1 (centres undefined) | inactive: -9.17% | – |
| CCN1C(=O)c2ccccc2S(=O)c2ccc(C(=O)NCc3ccc(F)cc3)cc21 (centres undefined) | inactive: -3.51% | – |
| Cc1ccc(C)c(S(=O)(=O)c2nnn3c2nc(N2CCOCC2)c2sccc23)c1 | inactive: -7.32% | – |
| COc1ccc(NC(=O)C2=C(C)Nc3nc(CCCO)nn3C2c2ccc(O)cc2)cc1 (centres undefined) | inactive: 1.71% | – |
| CC(C)N(Cc1ccccc1)c1ncnc2c1nnn2C | inactive: 2.06% | – |
| CCOc1ccc(C(c2c(O)cc(C)n(CCOC)c2=O)N2CCN(c3ccccc3F)CC2)cc1 (centres undefined) | inactive: 1.59% | – |
| Cc1ccc(CNC(=O)CCSCc2ccccc2F)cc1 | inactive: 13.7% | – |
| O=C(NCc1cccnc1)c1nn(-c2ccccc2F)nc1CO | inactive: 0.445% | – |
| CCc1cccc(NC(=O)CCc2c(C)nc3c(c2C)c(=O)n(C)c(=O)n3C)c1 | inactive: 0.979% | – |
| Cc1cc(C)c2oc(C(=O)Nc3sc4c(c3C(=O)NCc3ccco3)CCCC4)cc(=O)c2c1 | inactive: 2.15% | – |
| Cc1ccc(N(C(=O)COc2ccccc2C)S(=O)(=O)c2ccc(Cl)cc2)cc1 | inactive: 6.2% | – |
| Cc1ccc(NC(=O)c2cccc(N3CCCS3(=O)=O)c2)cc1 | inactive: 0% | – |
| COc1ccccc1NC(=O)Cn1c(=O)n(-c2ccc(C)cc2)c(=O)c2ccc(C(=O)NCc3ccco3)cc21 | inactive: 2.65% | – |
| COc1ccccc1N1CCN(c2ccc(=O)n(CC(=O)Nc3ccc(F)c(F)c3)n2)CC1 | inactive: -0.208% | – |
| Cc1c(NC(=O)c2ccc(Cl)cc2)cc(C(C)C)c(O)c1S(=O)(=O)c1ccc(Cl)cc1 | inactive: -2.37% | – |
| CCOCCCNC(=O)c1ccc(NC(=O)N2CCCCc3ccccc32)cc1 | inactive: 1.87% | – |
| O=C(NCc1ccc(Cl)cc1)C1CCCN(C(=O)c2cnn(-c3ccc(F)cc3)c2-n2cccc2)C1 (centres undefined) | inactive: -5.88% | – |

| SMILES | activity change, negative = inhibition | Potency |
| --- | --- | --- |
| O=C(CCn1c(=O)c2cccn2c2ccc(F)cc21)NCCc1ccccc1 | inactive: -2.63% | – |
| CCCc1cc(C(=O)Nc2c(C)nn(Cc3ccc(C)cc3)c2C)no1 | inactive: -27.3% | – |
| Cc1ccc(C)c(Nc2cc(C(=O)NC3CCCCC3)c3ccccc3n2)c1 | inactive: -8.23% | – |
| CCC(=O)N1CCc2cc(CNC(=O)C(CC)c3ccccc3)ccc21 (centres undefined) | inactive: -2.66% | – |
| COc1ccc(-c2nc(CN3CCC(C(=O)NCCCOC(C)C)CC3)c(C)o2)cc1OC | inactive: -7.63% | – |
| COc1cccc(-n2cc(C(=O)NCc3ccccc3OC)c3ccccc3c2=O)c1 | inactive: 3.5% | – |
| Cc1ccccc1Cn1c(=O)n(CCc2ccccc2)c(=O)c2c(C)c(C)sc21 | inactive: 0.953% | – |
| COc1cccc(OCCSc2nc3ccccc3n2CC(=O)N2CCCCC2)c1 | inactive: 0.45% | – |
| COC(=O)c1cc(S(=O)(=O)NCC2CCN(Cc3cccc(F)c3)CC2)c[nH]1 | inactive: 6.98% | – |
| CCc1cc2c(cc3c(=O)n(CC(=O)NCCc4ccc(OC)c(OC)c4)ncn32)s1 | inactive: -8.53% | – |
| COC(=O)CSc1nc(-c2ccc(F)cc2)cc(C(F)(F)F)n1 | inactive: -13.1% | – |
| O=C(CCn1ccc2cc(S(=O)(=O)N3CCCC3)ccc21)NCc1cccc(F)c1 | inactive: -1.82% | – |
| COc1cc(OC)c(C2Nc3ccccc3-c3nnc(SCc4ccccc4)nc3O2)cc1OC (centres undefined) | inactive: -8.33% | – |
| COc1ccc(OC)c(C2N=C(N)Nc3nc4ccccc4n32)c1 (centres undefined) | inactive: 1.1% | – |
| COc1ccc(NC(=O)Cn2c(=O)n(Cc3nc(C)no3)c(=O)c3cc4c(cc32)OCO4)cc1OC | inactive: -5.73% | – |
| Cc1cccc(C)c1-n1ncc(C(=O)NCCN2CCOCC2)c1C1CCN(C(=O)OC(C)(C)C)CC1 | inactive: 2.03% | – |
| Cc1nc(-c2ccc(Cl)cc2)sc1CCNC(=O)c1ccc(C(F)(F)F)cc1 | inactive: 0.44% | – |
| Cc1ccc(C)c(NC(=O)CCn2nc(C)c3c(C)n(-c4ccccc4)nc3c2=O)c1 | inactive: -1.22% | – |
| Cc1cccc(-c2nn3c(=O)cc(CN4CCN(S(=O)(=O)c5ccc(Cl)cc5)CC4)nc3s2)c1 | inactive: 9.33% | – |
| CCC(C(=O)Nc1ccccc1C(=O)OC)n1nc(C)c2c(C)n(-c3ccc(C)cc3)nc2c1=O (centres undefined) | inactive: -7.23% | – |
| Cc1ccc(C)c(NC(=O)c2ccc3c(c2)CCN3S(C)(=O)=O)c1 | inactive: -1.72% | – |
| COc1ccc(NC(=O)C(c2ccc(C)cc2)N(C)C(=O)Cc2cccs2)cc1 (centres undefined) | inactive: -1.55% | – |
| COc1ccccc1CNC(=O)CSc1ncc2c(n1)-c1ccc(Cl)cc1N(Cc1ccccc1)S2(=O)=O | inactive: -1.69% | – |
| Cc1c(Cl)cccc1NC(=O)C(C)n1c(=O)cc(-c2ccccc2)c2c(C)nn(C)c21 (centres undefined) | inactive: -2.17% | – |

| SMILES | activity change, negative = inhibition | Potency |
| --- | --- | --- |
| CCc1ccc(NC(=O)c2sc3nc(C)c(Cl)c(C)c3c2N)cc1 | inactive: -0.767% | – |
| O=C(Cn1c(-c2cccs2)cc2cc(Cl)ccc21)N1CCN(c2ccccc2)CC1 | inactive: -13.1% | – |
| CCOc1ccccc1C(=O)N1CC(=O)Nc2ccc(Cl)cc2C1c1ccccc1 (centres undefined) | inactive: 10.8% | – |
| COc1ccc(-c2cccc(NS(=O)(=O)c3cc(C)c(OC)c(C)c3C)c2)nn1 | inactive: -11.3% | – |
| Cc1ccc(NC(=O)C2CCCN2S(=O)(=O)c2ccc3c(c2)CCCC(=O)N3)cc1C (centres undefined) | inactive: -4.65% | – |
| O=C(Cn1c(=O)c2cc(Cl)ccc2n2nncc12)Nc1ccccc1 | inactive: 0.853% | – |
| O=C(CC(c1cccs1)N1Cc2ccccc2C1=O)Nc1ccc(F)c(Cl)c1 (centres undefined) | inactive: 0.828% | – |
| CC(=O)Nc1cc(C(=O)NCc2ccc(C)cc2)ccc1Sc1ccc(C)cc1 | inactive: 5.89% | – |
| C=CCC(CC=C)(CNC(=O)C(=O)Nc1cccc(C(F)(F)F)c1)c1ccccc1 | inactive: 0.999% | – |
| CCc1ccc(-c2nc(CN3CCCC(C(=O)N4CCN(c5cc(Cl)ccc5C)CC4)C3)c(C)o2)cc1 (centres undefined) | inactive: 0.385% | – |
| CC(CNC(=O)Cn1ccc2cc(S(=O)(=O)N3CCCCCC3)ccc21)c1ccccc1 (centres undefined) | inactive: -10.1% | – |
| COc1ccc(Cl)cc1NC(=O)CN(C)S(=O)(=O)c1ccc2c(c1)CCCN2C(C)=O | inactive: -17.5% | – |
| CCOC(=O)c1ccc(N2CCN(c3cccc(Cl)c3)CC2)c(NC(=O)Nc2ccc(OC)cc2OC)c1 | inactive: -15.9% | – |
| Cc1cccc(-n2c(=O)c3c(c4cc(C)ccc4n3C)n(CC(=O)NCCC3=CCCCC3)c2=O)c1 | inactive: -5.82% | – |
| COc1ccc(-c2noc(-c3cccnc3NCc3ccco3)n2)cc1 | inactive: 3.85% | – |
| COc1ccc(-c2onc(C)c2C)cc1S(=O)(=O)NCC1CCN(Cc2ccccc2F)CC1 | inactive: -20.5% | – |
| CCOC(=O)CSc1nc2ccccc2c(=O)n1CCc1ccc(OC)c(OC)c1 | inactive: -10% | – |
| Cc1ccc(Oc2c(C(F)(F)F)oc3cc(OCC(=O)NC4CCCCC4)ccc3c2=O)cc1 | inactive: 0.869% | – |
| CCCN1C(=O)C(O)(CC(=O)c2ccc(CC)cc2)c2ccccc21 (centres undefined) | – | active: 14.7 µM |
| CCc1cccc(C)c1NC(=O)CSc1nc(C)cc(C)c1C(=O)Nc1ccccc1 | inactive: 0.7% | – |
| CC(C)Sc1ncc(Cl)c(C(=O)Nc2nnc(C(C)C)s2)n1 | inactive: -9.65% | – |
| CCc1ccc(NC(=O)Cn2c(=O)oc3cc(S(=O)(=O)N4CCCCCC4)ccc32)cc1 | inactive: -0.766% | – |
